# Measurements reported in patent US20220227872A1 (LUDWIG INSTITUTE FOR CANCER RESEARCH, published 2022).
# T1: murine tumor endothelial marker 1 (TEM1) on cells (murine, UniProt Q91V98 18-765)
# T1 construct: also called mTEM1; murine TEM1
# T1 sequence: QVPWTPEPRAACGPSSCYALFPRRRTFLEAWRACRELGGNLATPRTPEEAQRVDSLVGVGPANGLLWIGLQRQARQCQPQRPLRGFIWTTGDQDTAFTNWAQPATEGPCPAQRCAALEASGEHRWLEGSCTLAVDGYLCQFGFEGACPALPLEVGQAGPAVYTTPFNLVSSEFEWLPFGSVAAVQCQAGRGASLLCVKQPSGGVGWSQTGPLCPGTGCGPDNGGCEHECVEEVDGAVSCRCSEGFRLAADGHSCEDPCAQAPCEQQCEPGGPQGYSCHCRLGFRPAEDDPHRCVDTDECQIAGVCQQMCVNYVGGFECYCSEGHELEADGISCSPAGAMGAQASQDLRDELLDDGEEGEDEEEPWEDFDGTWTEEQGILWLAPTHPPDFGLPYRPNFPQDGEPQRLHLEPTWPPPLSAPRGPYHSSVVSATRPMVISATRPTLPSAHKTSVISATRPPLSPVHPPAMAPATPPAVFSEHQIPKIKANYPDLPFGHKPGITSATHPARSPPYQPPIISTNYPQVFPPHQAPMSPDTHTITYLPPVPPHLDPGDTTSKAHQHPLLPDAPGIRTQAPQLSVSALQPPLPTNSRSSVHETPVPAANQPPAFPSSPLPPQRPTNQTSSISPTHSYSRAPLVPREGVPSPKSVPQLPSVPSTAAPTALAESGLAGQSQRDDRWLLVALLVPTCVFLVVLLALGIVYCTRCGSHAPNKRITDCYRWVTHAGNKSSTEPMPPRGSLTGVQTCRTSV
# B1: anti-TEM1 scFv-Fc fusion 1C1mut (Fc fusion)
# VH: QVQLVQSGAEVKKPGSSVKVSCKASGGTFSSYAISWVRQAPGQGLEWMGGIIPIFGTANYAQKFQGRVTITADKSTSTAYMELSSLRSEDTAVYYCASLISYYGDPTGFDYWGQGTLVTVSS
# VL: QPVLTQPPSASGTPGQRVTIS[sequence of about 80 residues not given]FGGGTKLTVL
# notes: also called 1C1mut variant scFv-Fc
# Target: T1, murine tumor endothelial marker 1 …
# Test: FACS, scFv-Fc 0.1 µg/ml on 2H11 cells
# Procedure: Adherent cells were detached using 10 mM EDTA, counted and resuspended in fresh, complete culture medium. All subsequent steps were performed on ice. […] After washing three times with FACS buffer, the secondary antibody, Alexa Fluor 647 AffiniPure Goat Anti-Human IgG (Jackson Immunoresearch, #109-605-098, 1:200 dilution) was added. Following incubation for 30 min the cells were washed again three times. Immediately before data acquisition, dead cells were stained with 4′,6-Diamidino-2-phenylindole (DAPI, 1:2000 dilution). Data was acquired using an LSR-II flow cytometer equipped with […] software (BD Biosciences). Data analysis and plotting were carried out using FlowJo v10 (FlowJo LLC).
binder,measurement,value
B1,binding result,binds
